{"source": "paper PMC12136788", "binders": {"B1": {"name": "chr12:24811411:24811512:-|3pUTR|ENSG00000060982|msi1|FALSE|unique (ssRNA)", "RNA": "GGGAGUUCUACAGUCCGACGAUCGUGAAGAACUCUAUAUUUGUAUGUUGAGAGGGCAUGGAAUAAUUGUAUUUUGCUGGCAAUAGACACAUUCUUUAUUAUUUGCAGAUUCCUCAUCAAAUCUGUAAUUAUGCACAGUUUCUGCAACAGAGGAUUGAGCAUCA"}, "B2": {"name": "ENSG00000005810:stop:overlap|stop_codon|ENSG00000005810|stop_codon|NA|stop_codon (ssRNA)", "RNA": "GGGAGUUCUACAGUCCGACGAUCCACCCACUGGGGAAGAGUUUGCUCUGGGAUGUGGAGUGUGCAGAAAUGCCCACACUUUUUAGAACACGCAGAUCCUUUGUCUACAGAGAGAAAAAUUGCCUUCAUCCCCCAAGAGGAUGCCAACAGAGGAUUGAGCAUCA"}, "B3": {"name": "ENSG00000107863:be:win_5401|CDS|ENSG00000107863|bound_else_gene|NA|bound_elsewhere_windowed (ssRNA)", "RNA": "GGGAGUUCUACAGUCCGACGAUCAGACAUACACUAGGAGGGCACAGAGAUGCUACCGAAAUCAGCGUUUUGAAUUUUUGGAAAGUGCAUGAGCAGAGCGGGGAGAGAGAAUCUGAACUUUCAGCUGUAAACCGGUUAAAACCACAACAGAGGAUUGAGCAUCA"}, "B4": {"name": "chr12:110350735:110350839:+|3pUTR|ENSG00000174437|unk|total|mutant (ssRNA)", "RNA": "GGGAGUUCUACAGUCCGACGAUCUACAGUUUGCUUAUUUAUAAAUUCAUUAAAAACACUACAGGUGUUGAAUGGUUAAAAUGCCGGCCUCCAGUUCAUUUUCAGUUAUUUUCUGAGUGUGCAGACAGCUAUUUCGCACUGUAUCAACAGAGGAUUGAGCAUCA"}, "B5": {"name": "chr2:189033597:189033698:-|3pUTR|ENSG00000204262|msi1|FALSE|unique (ssRNA)", "RNA": "GGGAGUUCUACAGUCCGACGAUCAAGAGUGGGGUAUAUAGAGCCACAACACAUGUUUAUUUUGCUUGGCUGCAGUUGAAAAAUAGAAAUUAGUGCCCUUUUGUGACCUCUCAUUCCAAGAUUGUCAAUUAAAAAUGAGUUUAACAACAGAGGAUUGAGCAUCA"}, "B6": {"name": "ENSG00000127995:stop:overlap|stop_codon|ENSG00000127995|stop_codon|NA|stop_codon (ssRNA)", "RNA": "GGGAGUUCUACAGUCCGACGAUCUAGCUGCAUUUUUUUGUGGACUCCUCAUCUUAUCAUCCAUUCAAGAUAAAUCAAAACAUUAGGUUCCAAAAAUUCUAAAAAACCUAAACUCUUCAGGCUACCUUUGUGUGUCUCUAGAAGCAACAGAGGAUUGAGCAUCA"}}, "note": "The other results are listed elsewhere or left out.", "data": [{"molecular_target": "MSI1 full-length (mouse, UniProt Q61474 1-362)", "sequence (Q61474 whole entry)": "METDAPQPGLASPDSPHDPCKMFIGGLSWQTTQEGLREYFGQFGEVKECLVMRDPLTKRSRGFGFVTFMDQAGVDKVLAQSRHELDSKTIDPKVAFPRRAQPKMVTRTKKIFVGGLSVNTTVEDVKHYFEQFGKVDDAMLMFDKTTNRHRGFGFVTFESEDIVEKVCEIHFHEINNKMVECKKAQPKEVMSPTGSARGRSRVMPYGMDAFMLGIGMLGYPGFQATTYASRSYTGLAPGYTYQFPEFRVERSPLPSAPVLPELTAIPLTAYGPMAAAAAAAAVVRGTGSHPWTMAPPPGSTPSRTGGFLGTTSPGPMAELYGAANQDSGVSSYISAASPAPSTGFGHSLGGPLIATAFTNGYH", "assay": "nsRBNS (natural sequence RNA bind-n-seq); RBNS binding buffer (assumed for nsRBNS): 25 mM Tris pH 7.5, 150 mM KCl, 3 mM MgCl2, 0.01% Triton X-100, 500 ug/ml BSA, 20 U/ml SUPERase-In, 4 C; UNK is unkempt and MSI1 is Musashi-1; names of the RNAs are library labels; protein concentration not given here; high values mean tight binding", "units": {"binding signal": "enrichment R"}, "values": [{"binder": "B1", "binding signal": 0.947}, {"binder": "B2", "binding signal": 0.439}, {"binder": "B3", "binding signal": 0.546}, {"binder": "B4", "binding signal": 0.714}, {"binder": "B5", "binding signal": 4.33}, {"binder": "B6", "binding signal": 0.482}]}]}
